In the supplement of paper PMC10126150:
Sequences with one replicate were seen in a single cluster, so their values are uncertain.

Tested on: ATP
Test: switch fluorescence ratio, 500 uM ATP over buffer (Cy3 cluster intensity, sum of 5 cycles each) (fold (ratio)); higher = stronger signal-on switching upon ATP binding; sequences stand for … in TCGTCGGCAGCGTCAGATGTGTATAAGAGACAGTTTTTTTTTTTTTTTTTTTTTTTTT…TC
Settings: aptamer strand: ATP DNA aptamer (quencher-CACCTGGGGGAGTATTGCGGAGGAAGG + anchor), 100 nM annealed; ATP concentration: 500 uM; one replicate
Outline: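 Five buffer/ATP imaging cycles were run on Cy3-labelled switching-strand clusters on a modified Illumina MiSeq flow-cell, with NaOH stripping and re-annealing between cycles. In each cycle, clusters annealed to 100 nM quencher-labelled ATP aptamer were imaged in selection buffer, then after 15 min with 500 uM ATP at 22 °C. Per cluster, the fluorescence ratio is summed target-cycle over summed buffer-cycle Cy3 intensity, averaged per switch-domain sequence. Only clusters within 100-1000 RFU were kept.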
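Also: ATP exposure 15 min at 22 °C before imaging.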

Sequence | switch fluorescence ratio
GGTTTATTCC | 1.12
CGCGAGGACG | 0.993
CAACTACTAT | 1.1
TACATCCTCG | 1.11
GGATAATCTA | 1
AGATCTGTTG | 0.994
TTGACTGATT | 1.05
TGTTTATACG | 0.949
AGAACGTACT | 1.42
TAGAGCGCTA | 1.05
GACCTCTTTC | 1.2
TGATAGTAC | 1.07
AAACCATAGG | 0.93
GGGTCTGTGA | 0.962
TGAAGGACAA | 1.06
GGAGTCGCTA | 0.981
GGGATTCGG | 0.973
ACCATTATTG | 0.999
TGGATTCAT | 0.985
CTAAGTATGT | 1
TTGCAGTTTC | 1.02
AATTAAAGAA | 0.973
AAGTATTTC | 1.01
AAACCCTCCG | 1.37
CTAAGTCGCA | 1
TTAGAATCGG | 1

Sequence | switch fluorescence ratio
CCTGGTCCTT | 0.94
ACAGTGCGTG | 0.985
GTTAAAGTTG | 0.947
GCTCAAAGGG | 1.03
GAGTTGGGAC | 1.04
AACCGTTAGA | 1.05
ATGAAAGCGC | 1.02
TGGGGGGTAA | 0.943
GCGCCGCCCA | 1.01
TTGTAACTAC | 2.45
GCGTCTGCTT | 0.989
ACTTGTACGG | 1.23
GGGCCACTGA | 1.01
ACCAAGGGCA | 1.04
TGGTTAGGCA | 0.991
TACTGAAGAA | 1.05
CTCGTGCGTG | 1.01
TCGTTGATAT | 1.08
GATGTTGGCT | 1.05
GACCCATCTA | 0.977
GTCCCAATGT | 1.09
AAGGATGCGG | 1.02
AATTGAGATT | 0.982
TTTTAGACTA | 0.995
CATTCGAAGT | 1.01
CGGGTAGCGG | 0.993

Sequence | switch fluorescence ratio
CAAACCCCTG | 1.04
ACCGGGTAAT | 0.95
CGGCCCACTG | 1.02
TATGAGCCAG | 1
CTTTGGTGGG | 1.02
AGGCATTG | 0.995
GGCCGATGGT | 0.945
CGCGGTAGCC | 0.968
ATAGAAGAGG | 0.969
ATCGAAGGAG | 0.989
TTCATGGCGT | 1.03
TAAGAAGCAG | 0.972
TCATAACGAG | 1.01
GAATTAGCTC | 0.961
ATATTAACCA | 0.996
CTTACCTGTA | 1.02
AATACTTGAA | 1.01
TGAGGCTGA | 1
CTGGTAAAAG | 1.01
GAGCCAAGTA | 1.01
AGTGATCAT | 1
GTGGATGCGA | 1.03
CGGTCGGTCA | 0.993
GCGTAGACCC | 1.02
GGAGTCCTGC | 0.921
TTACCTTATG | 1.05

Sequence | switch fluorescence ratio
GCCATATTAG | 1.02
TTGCAACAAA | 1.04
AGGTCGGTGT | 1.01
ATGATGTTTA | 1.02
GCCGAATGG | 0.987
GCGAAGAACG | 1.02
TACATCTCAG | 0.982
TCAACGTGGT | 1.03
TATACGGACC | 1.48
TGCATTCTGG | 1.1
AAAATTTCCT | 1.11
TCCGCCTCG | 1.17
CAGCAGCTTA | 1.83
ATTCTACTG | 0.951
GGTTTATGCC | 0.923
TTCTAGAAGA | 0.973
GTACGTTTGG | 0.957
TACCTATAGT | 1.04
GCCGGATACT | 1
GCAGGACGTG | 1.03
CAGGTCGGCA | 1.06
GGAGATCTAG | 1.05
GGAGATCAGA | 0.973
AGGTAGTTGG | 1
TATGAGGCT | 1.09
TGATTTGTC | 1.04

Sequence | switch fluorescence ratio
GTATAACAGC | 1.01
TTGGACGCGA | 1.27
GCCGCGTAGG | 0.981
AGCGGGTG | 1.03
ACATTAATGG | 1.02
GACAAGCGTC | 1.02
GGGTAGGCG | 0.97
TCGATATTC | 1.04
AAGCTCCCGT | 1.02
CCTATCGTCA | 1.61
GGATACTTAG | 1.03
GATCGTCTGG | 0.974
CGTAAAAGA | 1.01
TCGGGCGGAT | 0.986
CAACCTGTGG | 1.18
CACTTTCGAC | 1.22
TAAACTCAC | 1.13
CTTAACTTTG | 1.02
GATTGCCGTC | 1.02
AAGGAGCACA | 1.13
AGTTGTCCTT | 0.986
GCATATGTTG | 0.999
CAACCCTGCT | 0.966
GTATTCTGCG | 1
ATACGTACGA | 1.66
GTAGTTTG | 0.978

Sequence | switch fluorescence ratio
ATGCTCTCGA | 1.01
GTGTGCATGG | 1.03
TCGATGGGTA | 0.998
AAACTTAGTC | 1.01
CCTCCCCGTT | 1.68
GTTGTTCCTT | 0.997
TGCCATTATT | 1.05
GCACTCCGGG | 1.06
ATCGATCCGT | 1.04
CCGATCTTAG | 1.12
GAAAGTTAAC | 1.03
ACGATCTGTA | 1
CAAAACTGCA | 0.958
GGTGAGTTGC | 1.03
TCTGGACTAG | 0.96
TGGCTTAAAA | 0.986
GGGCATTTTA | 1.05
TTAGCATGTA | 0.99
TCGAGCGCAG | 1.25
TGCGATCTAC | 1.25
CGGAGGGTAA | 1.05
GATACTTGTG | 0.983
CGGTTATAT | 1.04
GGAGACAGCA | 1.01
GTTTGGTG | 0.997
CCAAGATATT | 1

Sequence | switch fluorescence ratio
ATTGTCCTTT | 1.04
TAAATCGCGC | 1.03
GCTAGAGAAT | 1
TATCCCCGAC | 1.13
ATGATCATC | 1.01
GCGTAGAACA | 0.967
CGAGCTGC | 0.993
GGTTCGCGGC | 1.06
GGGACAAAGA | 0.978
TAATTGATTG | 1.02
TAACGTAAG | 1.01
TGTTATGTGG | 0.992
AACTTCACGG | 1.27
TCCATGTTCG | 0.92
ACTCCATTG | 1.01
GATCAGACTG | 1.13
CCAACACAAT | 3.91
CTAGTAATAT | 1.25
ACCCTTAGAA | 0.998
GCGTGCAACA | 0.969
AAAGGTGATC | 0.944
AAATAAGCTA | 1
GCACTAGGTG | 1.4
GTAACGGGTG | 1.12
CGCCACGGTA | 1.04
AGACTAAGGT | 0.932

Sequence | switch fluorescence ratio
ATCATGATCT | 1.23
TTATTAGCGA | 1.18
ACCACAAGTG | 1.23
CACAATGTCA | 1.03
TTGGTATTCC | 1.1
GTAGCTGTGT | 0.997
TCGTCTCATT | 0.97
TGACTTCCTG | 0.967
AACGCGTTTT | 1.01
AGCACTTATT | 1.03
ATTCCAAGCG | 1.1
AGGGGCGGAC | 0.974
CCGAGGGGAA | 3.01
AGCCTGACG | 1.09
GTTTAAGCAG | 0.97
GCCTAAGCTA | 1
AAGTCGACTT | 0.992
CGCGTGTAGT | 1.02
GGTGCCCACT | 1
